Assay results taken from a collection of fitness landscapes (doi:10.1038/s41467-024-54723-y).
The full ranking holds about 18,000 sequences; the median of “TetR repression strength (sort-seq, GFP reporter)” is about 0.23, and the highest 2% start at about 0.68. The list shows a part of the results.

Each sequence was assayed against TetR (class B, Tn10) (UniProt P04483) (assay: TetR repression strength (sort-seq, GFP reporter) (relative to tetO2 = 1); higher = stronger repression). Conditions: E. coli.
Chain of UniProt P04483 (P04483 whole entry): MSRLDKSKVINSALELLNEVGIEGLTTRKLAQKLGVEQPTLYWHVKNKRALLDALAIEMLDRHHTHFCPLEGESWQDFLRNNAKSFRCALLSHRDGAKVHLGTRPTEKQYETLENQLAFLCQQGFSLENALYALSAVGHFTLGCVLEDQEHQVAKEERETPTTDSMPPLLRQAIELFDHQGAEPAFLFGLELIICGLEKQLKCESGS
Summary of the method: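 Three independent transformations of E. coli SIG10-MAX were made with a low-copy plasmid library randomizing eight operator positions between a constitutive promoter and sfGFP, with constitutive TetR. Following 5 h at 37 °C in LB plus 50 µg/mL chloramphenicol, 10^6 cells went through FACS into 13 fluorescence bins, and each bin was sequenced by Illumina. Repression strength was defined as the top bin index plus one minus the read-weighted mean bin, divided by the unaltered operator's value. Averages included only members reaching ≥30 reads in all replicates with a CV ≤0.5.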

Row | Sequence | TetR repression strength
1 | TCCCTCTAAGTGTTCGAGA | 0.333
2 | TCCCCGGTAGTTGGTGAGA | 0.23
3 | TCCCGGCGAGTCGCGGAGA | 0.254
4 | TCCCTGCGAGTTAAGGAGA | 0.225
5 | TCCCGTAAAGTCATGGAGA | 0.273
6 | TCCCGGGGAGTTCATGAGA | 0.161
7 | TCCCGTTCAGTGGGTGAGA | 0.33
8 | TCCCTCGAAGTTGCCGAGA | 0.0346
9 | TCCCAGAGAGTAAATGAGA | 0.0415
10 | TCCCAGTAAGTCCTTGAGA | 0.49
11 | TCCCTAGTAGTGTTTGAGA | 0.311
12 | TCCCTGTCAGTATGAGAGA | 0.303
13 | TCCCCACGAGTTCAAGAGA | 0.381
14 | TCCCAGCGAGTTTGTGAGA | 0.241
15 | TCCCTGGCAGTAGTAGAGA | 0.0854
16 | TCCCGTACAGTGCGCGAGA | 0.318
17 | TCCCATGCAGTTGGGGAGA | 0.216
18 | TCCCCCCCAGTTAAAGAGA | 0.311
19 | TCCCCCGAAGTTTCAGAGA | 0.32
20 | TCCCACTCAGTTATAGAGA | 0.661
21 | TCCCTTGCAGTATACGAGA | 0.35
22 | TCCCAATAAGTGGTAGAGA | 0.399
23 | TCCCTGTGAGTGTTTGAGA | 0.256
24 | TCCCTATTAGTAGGAGAGA | 0.26
25 | TCCCAGGTAGTGACCGAGA | 0.142
26 | TCCCGCGTAGTGTTGGAGA | 0.324

Row | Sequence | TetR repression strength
27 | TCCCATCGAGTTGAGGAGA | 0.259
28 | TCCCGGGGAGTCAGAGAGA | 0.17
29 | TCCCTGACAGTAGGGGAGA | 0.294
30 | TCCCCGTGAGTCGAGGAGA | 0.137
31 | TCCCAGTAAGTATGAGAGA | 0.272
32 | TCCCTCGAAGTATCGGAGA | 0.166
33 | TCCCACAGAGTGGCGGAGA | 0.304
34 | TCCCGGTGAGTGGCCGAGA | 0.466
35 | TCCCAGTCAGTCCCTGAGA | 0.141
36 | TCCCTATCAGTCATCGAGA | 0.747
37 | TCCCGACCAGTTTCGGAGA | 0.0546
38 | TCCCTCCTAGTGTTCGAGA | 0.514
39 | TCCCCGGGAGTGTCAGAGA | 0.0679
40 | TCCCTCATAGTGGAGGAGA | 0.16
41 | TCCCAACGAGTTAAAGAGA | 0.278
42 | TCCCTCCAAGTTTGTGAGA | 0.28
43 | TCCCCCCGAGTAACGGAGA | 0.153
44 | TCCCGAAGAGTGCGAGAGA | 0.245
45 | TCCCGAAAAGTACAAGAGA | 0.349
46 | TCCCGGTGAGTAAACGAGA | 0.0592
47 | TCCCATGGAGTAGGGGAGA | 0.12
48 | TCCCGAACAGTTACGGAGA | 0.202
49 | TCCCCACCAGTGGACGAGA | 0.135
50 | TCCCAGATAGTGCTTGAGA | 0.0333
51 | TCCCTTTCAGTATTCGAGA | 0.394
52 | TCCCGTGCAGTTGGTGAGA | 0.238

Row | Sequence | TetR repression strength
53 | TCCCAACAAGTTCATGAGA | 0.195
54 | TCCCGCCCAGTCATGGAGA | 0.284
55 | TCCCATGTAGTAACAGAGA | 0.175
56 | TCCCCGTGAGTGCTGGAGA | 0.102
57 | TCCCCCGAAGTCGCTGAGA | 0.316
58 | TCCCACCTAGTGACTGAGA | 0.338
59 | TCCCGGACAGTCCGCGAGA | 0.21
60 | TCCCTAGAAGTTGGTGAGA | 0.46
61 | TCCCGAAGAGTCGCAGAGA | 0.285
62 | TCCCAGTCAGTGCGAGAGA | 0.253
63 | TCCCGATTAGTCGGCGAGA | 0.265
64 | TCCCTGATAGTAGTGGAGA | 0.133
65 | TCCCATCAAGTAACGGAGA | 0.118
66 | TCCCGTATAGTGGAGGAGA | 0.054
67 | TCCCAGCGAGTAGGAGAGA | 0.084
68 | TCCCAGCGAGTGGGGGAGA | 0.275
69 | TCCCGTAAAGTACCGGAGA | 0.183
70 | TCCCACCTAGTTGGGGAGA | 0.251
71 | TCCCTGCAAGTTGTGGAGA | 0.0932
72 | TCCCGAGCAGTTTGGGAGA | 0.214
73 | TCCCACGGAGTGACTGAGA | 0.361
74 | TCCCGAGGAGTTGAAGAGA | 0.0679
75 | TCCCTGCCAGTTCGGGAGA | 0.304
76 | TCCCGAAGAGTGCGGGAGA | 0.272
77 | TCCCGTCGAGTTAGAGAGA | 0.334
78 | TCCCGTACAGTCGATGAGA | 0.138

Row | Sequence | TetR repression strength
79 | TCCCGTACAGTCGGCGAGA | 0.159
80 | TCCCACCGAGTTGTAGAGA | 0.108
81 | TCCCCGAAAGTCTAGGAGA | 0.224
82 | TCCCGCGCAGTGCCAGAGA | 0.363
83 | TCCCAACGAGTTGTGGAGA | 0.189
84 | TCCCGGATAGTTGTGGAGA | 0.298
85 | TCCCTATTAGTAACTGAGA | 0.378
86 | TCCCGCAGAGTGGGGGAGA | 0.213
87 | TCCCACAAAGTTGAAGAGA | 0.553
88 | TCCCCATCAGTGTGAGAGA | 0.146
89 | TCCCCTACAGTGGCGGAGA | 0.143
90 | TCCCGTTTAGTACTAGAGA | 0.075
91 | TCCCCGTGAGTCAGAGAGA | 0.963
92 | TCCCAGTGAGTGCTGGAGA | 0.111
93 | TCCCTGCGAGTGCGAGAGA | 0.049
94 | TCCCAGCGAGTGCGGGAGA | 0.304
95 | TCCCTGGCAGTGATAGAGA | 0.489
96 | TCCCGTTGAGTAAGCGAGA | 0.104
97 | TCCCAATCAGTTTTGGAGA | 0.207
98 | TCCCCTGTAGTCACCGAGA | 0.402
99 | TCCCGTCTAGTGAAGGAGA | 0.315
100 | TCCCAGGCAGTGGGGGAGA | 0.193
101 | TCCCCGGTAGTCGAGGAGA | 0.315
102 | TCCCTGGTAGTCTCGGAGA | 0.203
103 | TCCCAAAGAGTAATTGAGA | 0.104
104 | TCCCGGCGAGTCTGTGAGA | 0.316

Row | Sequence | TetR repression strength
105 | TCCCAGGCAGTCTCGGAGA | 0.385
106 | TCCCGTTAAGTAGGGGAGA | 0.47
107 | TCCCAGTTAGTATTTGAGA | 0.0715
108 | TCCCCTTTAGTATTCGAGA | 0.334
109 | TCCCCCCGAGTGCAGGAGA | 0.304
110 | TCCCCACCAGTGTTGGAGA | 0.274
111 | TCCCGTTCAGTTGCGGAGA | 0.0104
112 | TCCCTTGAAGTAAGCGAGA | 0.442
113 | TCCCGGAAAGTCCGAGAGA | 0.34
114 | TCCCATGAAGTAGCCGAGA | 0
115 | TCCCGGCAAGTGAAGGAGA | 0.459
116 | TCCCGTCTAGTGCGCGAGA | 0.334
117 | TCCCACTGAGTGTATGAGA | 0.175
118 | TCCCTAATAGTACCAGAGA | 0.377
119 | TCCCAATGAGTAGCTGAGA | 0.0946
120 | TCCCCTTGAGTCATAGAGA | 0.304
121 | TCCCGGAGAGTGACTGAGA | 0.147
122 | TCCCCGTTAGTTAAGGAGA | 0.149
123 | TCCCGATCAGTGGGCGAGA | 0.187
124 | TCCCGGGGAGTATTGGAGA | 0.393
125 | TCCCGGTAAGTGCGAGAGA | 0.0234
126 | TCCCAAAGAGTATGGGAGA | 0.15
127 | TCCCGAATAGTGTGAGAGA | 0.299
128 | TCCCGTGGAGTGCACGAGA | 0.315
129 | TCCCCATTAGTGTAGGAGA | 0.162
130 | TCCCGTGGAGTCAGTGAGA | 0.411
